The RNAGym collection of RNA variant scans (doi:10.7554/elife.90254)
Read counts are not given, so values of variants with three or more changes are uncertain.

B1: LINE1-mini (parent)
chain: GGCAGAGCUCAACACAGCGUGGCAAAGUGGCUGUGGCUAGACUGCC

Variants of: B1
Experiment: self-cleavage, relative activity (ratio to wild type); higher = more cleavage; in vitro, sequencing; the parent is a self-cleaving ribozyme

Variant	self-cleavage
G2A G22U U28C C31A U32A	0.23
G2C A6C C8A G22A G29A	0.03
G2A C8A C13G G35C	0.23
G2C A11C G22U U34A G44C	0.01
G2A C18A A25G	0.15
G2A G5U A24C U34G U38C	0.08
G2A C10A G19U C31A G35U	0.02
G2A G7A U28A G33C U38C C46G	0.04
G2A C3G A25U U38A	2.14
G2A C3U C18U G35C U38C G40C	0.03
G2A C3G C8U G36U U38G	1.01
G2A U9A U28G C31U C37A C46A	0.06
G2A C15A G19A U34C	0.21
G2A G17U G22C G27U	0.48
G2A C3G A39G	0.2
G2A G5U C18A G21C	0.24
G2A G7A A12C C23A U32A G36C G40C	0.01
G2A A6U C10A A14G G17C A26G U43C	0.02
G2A U20C U28G	0.32
G2A C3A G5U C10G G22C A24G	0.02
G2A C37U U43A	0.2
G2C A4G C8G G17A U38A	0.04
G2A A24G C42U	0.47
G2A C31G G40A	0.12

Variant	self-cleavage
G2A C10G A16U G36U	0.04
G2A C18G G30A G44C	1.34
G2A U9C G33C	0.05
G2A G17A U34G	0.19
G2A A11G U20A A26G G40U A41C	0.01
G2A A16U G44U	0.07
G2A C8G A26U U32C A41U	0.04
G2A A6C U20A	0.25
G2C A4G U34C	0
G2A U34C A41C	0.4
G2A G36A A39U	0.36
G2A G5A C10A A26C G33C C37A A39G C42U	0.04
G2A A12G A14C C15U G17A G22C	0.02
G2A C3U A4G A6C G7U C13G A14G G22C A25G	0.11
G2C A6G A39C	0.01
G2A G7U U9C A12U C13G A24G G33A G35U	0.02
G2A A25G U43A	0.53
G2A A6C C13A U20G G21U U34C	0.1
G2A G5A C15A U34A	0.38
G2A G21C C23A A24U G29A U34C G40U C42A	0.16
G2A C3A G19A G29A U43C	2.13
G2A C23A A24C	0.98
G2C A11C A16C	0
G2A A6G C8A G17U G30A C45U	0.19

Variant	self-cleavage
G2A G7C A11G G30C A39C	0.02
G2A G33A G44U	0.42
G2A A4C C10U U43G	0.08
G2A A4U C13A G30A	0.29
G2A A11C G19C C23G A25C G27U U32A G33A	0.03
G2A A6U A25U A26G U32A C37G	0.03
G2A C8A A14C C15U G17A G22C A24C C46G	0.21
G2A C23G G35A U38C	0.07
G2A U9G G19U U38A	0.23
G2C A6C U9A G19C G29A C31U C37A	0.03
G2A C23U U34G C37A	0.52
G2C A6C U20C C23U G30A G35C C46G	0.06
G2A G7C C10U	0.07
G2A A11U A12U	0.13
G2A C3A U34C	0.56
G2A A12C C18A	0.07
G2A G5U C13G C15U	0.17
G2A U9G G22U U34G	0.15
G2A C10A A16G	0.06
G2A G7C A12G G33U	0.7
G2C A11U A24C U32A C42G	0
G2A G5A C10A A41U U43A	0.02
G2A C3U A4G G27C	0.21
G2A C3U A14C C15U G19A A26U G30A A39C	0.21

Variant	self-cleavage
G2A A12G G17U U28G U38A	0.1
G2A G5A C37A	0.82
G2A A6C C10U C23U A41U	0.05
G2C A6C C13U C15G A26U A39U	0.02
G2A A11G A12C G44U	0.01
G2A U9G G33U G35C C42G	0.07
G2A A6C G21U G27U	1.71
G2A C8A G17C C18G G44C C45U	0.21
G2A C10G G21A G30C U38C G40U	0.01
G2A C15G A24C G29U C31G	0.02
G2A C13G U32G C37A	0.04
G2A A12C G35U	0.05
G2A C8A U9G G19U	0.15
G2A G17A A25C G44U	0.19
G2A C10G G27U U38G	0.01
G2A C10A G27C C31G A39G	0.02
G2A C31U U43A	0.24
G2A C10G A11G C15A G17A A26U C37G U38A	0.01
G2A A6U A11G C42G	0.05
G2A A12C A14C G17C U34A G36U U38A	0
G2A C13U A16U	0.32
G2A G7A C15A U32C G36C	0.17
G2A A4G A11G	0.02
G2C A6U C18U	0.02

Variant	self-cleavage
G2A C3A G19C G33U	1.31
G2A U9C A24U C37U U38G	0.02
G2A A12G G30U G40C C46U	0.06
G2A A11G A24C	0.01
G2A C13U C31A A41C C42A	0.32
G2A A14C G33A	0.13
G2A C18U A26G	0.8
G2A G5C A6U U9C	0.06
G2A A12C U38A C42A	0.04
G2A C3A A6C A11C A12U C13U C23U C37A G40A	0.04
G2A U9G A11G A25G A39G C45U	0
G2A A4G U9A C13A A26C C37A	1.4
G2A G5U C18A A24G G29A G40A	0.04
G2A C3U U9C	0.03
G2C A6C G19A G22U	0.31
G2A A12C G19A C42G	0.02
G2A C10U A14C C23U G35U	0.02
G2A U20G C37G	0.11
G2A C3U U20C G35U G44U	0.06
G2A A6G C8A A24C A25U G30U	0.02
G2A A11C C15A C18A U38G	0.02
G2A A4C C8A A16C G17U G21A U34G C45G	0.17
G2C A4U C10A G21A U32G G35C A41C C45A	0.01
G2A C18A A25G G30C	0.07

Variant	self-cleavage
G2C A4C C13A A14U A16G U38A C46G	0.02
G2A G5A C15G G22A A24U G30A	0.07
G2A A12C C13A	0.11
G2C A6G C13A C23U G33A G44U	0.03
G2A A14C G35U C45A	0.05
G2A G35A G40C	0.14
G2C A4U C37U U38A	0.06
G2C A4G A16G G30A	0.02
G2A C3U A6U U38C	0.45
G2A U28G A39C A41G	0.1
G2A U20C C23A A24C	0.25
G2A C10A A25G G30C G33U	0.06
G2A C8U C13A G22C U32G U38A	0.02
G2A A25C G35A U38G A39G	0.1
G2A C8G C13A G19U U28G	0.09
G2A A14C G30A C42A U43C G44C	0.13
G2A C3G C15G G27A	0.04
G2A C3A C15U G22C C31U G36C	0.42
G2A C10U G22U	0.1
G2A G5A G17U G21A	0.19
G2A C10A G17A G29U	0.06
G2A G17U G27A G30A	2.42
G2A A16G G33A C45A	0.04
G2C A4U A6U	0.02

Variant	self-cleavage
G2A G5A U9G C15A G17U C18A G33C U38A A41G	0.02
G2A C3U G17C C23A	0.59
G2A U20A C45G	0.8
G2A G21U U32G C46G	0.28
G2A C10A A11G A24C	0.04
G2A A11C A12U	0.08
G2A C18U G29A	0.72
G2C A4C A6U C15G A25U	0.02
G2C A6G U32A C45U	0.03
G2A G19U G27U G36A U43A	0.26
G2A A6C G29U G40A	0.13
G2A C10U G19C G36U	0.05
G2A C3A A11C U32A U38A	0.05
G2A C15G G21C	0.04
G2A A11G C13U G29U U34C	0.05
G2A A4C G22A C45A	0.15
G2A A6U G35A	0.06
G2A C15U U20A	0.37
G2A C3A C8G U9A U32A	0.69
G2A A12U A14U G19A	0.04
G2A U9G G40U	0.07
G2C A11U G27C	0.02
G2C A6C G35U	0.33
